The target of the experiment is T1, Kar4p fused to the 13xMYC epitope (S. cerevisiae), P25583.
T1 chain: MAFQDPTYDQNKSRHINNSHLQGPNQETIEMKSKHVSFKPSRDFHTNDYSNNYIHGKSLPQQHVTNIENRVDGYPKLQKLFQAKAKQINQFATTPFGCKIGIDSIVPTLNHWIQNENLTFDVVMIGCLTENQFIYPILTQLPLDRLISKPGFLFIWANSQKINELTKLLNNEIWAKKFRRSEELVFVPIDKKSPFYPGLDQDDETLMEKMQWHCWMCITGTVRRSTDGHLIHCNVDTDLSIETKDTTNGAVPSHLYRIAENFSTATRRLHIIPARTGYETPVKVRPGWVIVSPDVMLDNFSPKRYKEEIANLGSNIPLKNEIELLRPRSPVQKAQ
Description: co-IP; Slz1p-3HA purified on anti-HA magnetic beads and Kar4p-MYC detected, or Kar4p-MYC purified on anti-MYC beads and Slz1p-3HA detected; extracts of cells sporulated for four hours; lysis buffer 1% Triton-X 100, 0.2 M Tris-HCl pH 7.4, 0.3 M NaCl, 20% glycerol, 0.002 M EDTA. Conditions: remark: other sources report otherwise.

This passage reports binding results from publication PMC10470960.

Results are given in words; binding and its absence hold for the method and conditions named. In cells and extracts the contact can be indirect. Some binding calls cover weakened binding; strength is not graded here. Tags and fused reporters may be left off the sequences shown.

B1: Slz1p fused to the 3xHA epitope, P40167 1-298 (protein)
chain: MMNKVDQIIGYKKYEVKLPKDRQVKKNKSKGGNVDQIDTKREKDKMRAFGEERKKFLDKMAKNKKKNTSRKDREKPKEVEKENYKREDKRLKEQKKLSLAKEFRFKEPNSEAINQNTAAENGKPKPQTGLDFDIDHQTVSKIMIDQAIQTSSPLNVQLTELFNDNVLDVSKDSQFVLQDMEFTSWERRWSNCSTTSNATTVSSVPDPKYNINYNDITSFNSVALITEDLNISASSNGLHERGKKLLQQEMEYSNKVKNVTIGLERLCMDEKPVPDAGITMQQASRWSEFPTCCDQAAI
On to B1, for which the binding result is given as “binds”.
